Where a name gives a salt, the structure may show the parent alone. ± gives the standard deviation of the averaged measurements. The full ranking holds about 1,900 compounds; the median of “normalised cell viability (NPI; 0 = phenylarsine oxide control, 1 = DMSO control)” is about 1, and the lowest 2% start at about 0.039. The list shows a part of the results.
Tested on: NCI-H1944
Test: normalised cell viability (NPI; 0 = phenylarsine oxide control, 1 = DMSO control) (fraction of DMSO control); NCI-H1944 is a non-small cell lung cancer line; higher = more viable cells (less compound toxicity)
Settings: 6 days
[1] = glucocorticoid arm: hydrocortisone 2.75 uM co-treatment, compound 1 µM
[2] = glucocorticoid arm: hydrocortisone 2.75 uM co-treatment, compound 5 µM
[3] = glucocorticoid arm: hydrocortisone 2.75 uM pre-treated 2 days and continued, compound 1 µM
[4] = glucocorticoid arm: hydrocortisone 2.75 uM pre-treated 2 days and continued, compound 5 µM
[5] = glucocorticoid arm: vehicle, compound 1 µM
[6] = glucocorticoid arm: vehicle, compound 5 µM
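Note: CTB read-out in 384-well plates, mean of triplicate wells, normalised per plate against 1 µM phenylarsine oxide and 0.1% DMSO, compounds added 24 h after seeding.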

SMILES	normalised cell viability [1]	normalised cell viability [2]	normalised cell viability [3]	normalised cell viability [4]	normalised cell viability [5]	normalised cell viability [6]
NC(=O)c1ncn([C@@H]2O[C@H](CO)[C@@H](O)[C@H]2O)c1O [Mizoribine]	0.977 ± 0.0098	0.947 ± 0.02	0.993 ± 0.019	1 ± 0.098	0.9787 ± 0.0032	0.984 ± 0.013
CCOc1cc2ncc(C#N)c(Nc3ccc(OCc4ccccn4)c(Cl)c3)c2cc1NC(=O)/C=C/CN(C)C [Neratinib (HKI-272)]	0.792 ± 0.0085	0.633 ± 0.033	0.812 ± 0.048	0.722 ± 0.027	0.761 ± 0.054	0.583 ± 0.01
Cc1cc(NC(=O)c2cccc(NC(=O)/C=C/CN(C)C)c2)ccc1Nc1nccc(-c2cccnc2)n1	0.989 ± 0.016	0.943 ± 0.017	1.007 ± 0.0058	0.917 ± 0.026	0.959 ± 0.011	0.702 ± 0.033
O=C1c2ccccc2C(=O)c2c(NCCc3ccc(O)cc3)ccc(NCCc3ccc(O)cc3)c21	1.01 ± 0.012	1.02 ± 0.038	1.01 ± 0.012	1.012 ± 0.0075	1.01 ± 0.0063	1.022 ± 0.0098
FC(F)(F)c1ccc(/C=C/c2nc(COc3ccc(CCCCn4ccnn4)cc3)co2)cc1 [Mubritinib (TAK 165)]	0.806 ± 0.011	0.46 ± 0.025	0.81 ± 0.031	0.638 ± 0.088	0.85 ± 0.0053	0.54 ± 0.094
CNCC[C@H](Oc1ccc(C(F)(F)F)cc1)c1ccccc1 [S-(+)-Fluoxetine hydrochloride]	0.9977 ± 0.0015	0.926 ± 0.006	1.01 ± 0.01	1.023 ± 0.0058	1.001 ± 0.009	1 ± 0.011
CC(=O)OCC(=O)[C@@]1(O)CC[C@H]2[C@@H]3CCC4=CC(=O)CC[C@]4(C)[C@H]3C(=O)C[C@@]21C [Cortisone 21-acetate]	0.989 ± 0.016	1.02 ± 0.01	0.996 ± 0.017	1.015 ± 0.0071	0.998 ± 0.011	1.01
Cn1cc(C(=O)OCC2CCN(CCNS(C)(=O)=O)CC2)c2ccccc21	1.01 ± 0.01	0.997 ± 0.014	1.02 ± 0.011	1.03 ± 0.014	1.017 ± 0.0058	1.023 ± 0.0058
Cc1nc(N=Nc2ccc(C(=O)O)cc2)c(COP(=O)(O)O)c(C=O)c1O	0.999 ± 0.0017	0.998 ± 0.02	1.01 ± 0.01	1.005 ± 0.0087	0.9937 ± 0.0085	1 ± 0.016
C[C@H]1C[C@H]2[C@@H]3CCC4=CC(=O)C=C[C@]4(C)[C@@]3(Cl)[C@@H](O)C[C@]2(C)[C@@]1(O)C(=O)CO [Beclomethasone]	0.998 ± 0.0017	1.02 ± 0.01	1.01 ± 0.01	1	0.803 ± 0.031	0.738 ± 0.039
Oc1ccc(O)cc1 [Hydroquinone]	1.01 ± 0.025	1.05 ± 0.015	1.01 ± 0.015	1.02 ± 0.011	0.9993 ± 0.0011	1.01
COc1cc2nc(N3CCN(C(=O)C4CCCO4)CC3)nc(N)c2cc1OC (centres undefined) [Terazosin hydrochloride]	0.998 ± 0.019	1.02 ± 0.016	0.856 ± 0.24	1.001 ± 0.0076	0.993 ± 0.004	1 ± 0.0095
COc1cc2nc(N3CCN(C(=O)C4CCCO4)CC3)nc(N)c2cc1OC (centres undefined) [Terazosin HCl]	1.02 ± 0.022	1.02 ± 0.024	1.05 ± 0.01	1.02 ± 0.015	1.023 ± 0.0058	1.01 ± 0.015
CC1CCN=C(N)S1 (racemic) [(±)-AMT hydrochloride]	0.982 ± 0.015	0.968 ± 0.015	0.9923 ± 0.0067	0.975 ± 0.0071	0.9907 ± 0.0095	0.9677 ± 0.0046
CNC(=O)c1nn(C)c2c1C(C)(C)Cc1cnc(Nc3ccc(N4CCN(C)CC4)cc3)nc1-2	0.485 ± 0.019	0.306 ± 0.002	0.549 ± 0.019	0.424 ± 0.013	0.282 ± 0.0098	0.126 ± 0.0072
CC(=O)NC(C(=O)O)C(C)(C)SN=O (centres undefined) [S-Nitroso-N-acetylpenicillamine]	0.998 ± 0.014	1 ± 0.026	1.01 ± 0.011	0.987 ± 0.023	0.9937 ± 0.0011	0.9943 ± 0.0055
CC(C)(F)C[C@H](N[C@@H](c1ccc(-c2ccc(S(C)(=O)=O)cc2)cc1)C(F)(F)F)C(=O)NC1(C#N)CC1 [Odanacatib (MK 0822)]	0.983 ± 0.023	1.03 ± 0.023	1 ± 0.017	1.04 ± 0.011	1.003 ± 0.0064	1 ± 0.013
O=c1[nH]c(=O)n([C@H]2C[C@H](O)[C@@H](CO)O2)cc1F [Floxuridine]	0.36 ± 0.036	1.07 ± 0.026	0.52 ± 0.019	1.05 ± 0.017	0.272 ± 0.011	1.01
CNNCc1ccc(C(=O)NC(C)C)cc1 [Procarbazine hydrochloride; Procarbazine]	1.01 ± 0.011	0.905 ± 0.032	1.013 ± 0.0058	0.963 ± 0.013	1.001 ± 0.0085	0.9143 ± 0.0055
NS(=O)(=O)c1cc2c(cc1Cl)NCNS2(=O)=O [Hydrochlorothiazide]	1.001 ± 0.0076	0.985 ± 0.0061	1.01 ± 0.018	1 ± 0.025	0.989 ± 0.01	0.991 ± 0.004
O=C1C(=O)N(Cc2ccc(Cl)c(Cl)c2)c2ccccc21 [Apoptosis Activator 2]	0.987 ± 0.015	1.01 ± 0.018	0.998 ± 0.011	1.02 ± 0.016	0.9993 ± 0.0059	1.002 ± 0.0084
C[N+]1(C)CCC(=C(c2ccccc2)c2ccccc2)CC1 [Diphemanil Methylsulfate]	1.03 ± 0.015	0.995 ± 0.035	1.03 ± 0.015	1.02 ± 0.026	1.013 ± 0.0058	0.995 ± 0.0087
CN(C)CCc1c[nH]c2ccc(C[C@H]3COC(=O)N3)cc12 [Zolmitriptan]	1.02 ± 0.022	0.985 ± 0.025	1.03 ± 0.01	1.02 ± 0.011	1.007 ± 0.0058	0.9937 ± 0.0078
CN(C)CCC=C1c2ccccc2C=Cc2ccccc21 [Cyclobenzaprine hydrochloride]	0.998 ± 0.011	0.986 ± 0.021	1.01	1.02 ± 0.014	0.997 ± 0.015	0.9983 ± 0.0029

Source: the supplement of paper PMC8285479
